This is one part of the list.
Columns and labels:
Experiment in all cases: glycan array binding signal (z-score within array); higher = stronger binding
Conditions in all cases: glycan notation: IUPAC condensed, linker removed; mutation: R349A
[1] = target: GlcNAc(b1-6)Gal(b1-4)GlcNAc
How it was run: (§1)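 Arrays were curated from the Consortium for Functional Glycomics database, 3228 in total, and kept only where the protein sequence was available. Binding is expressed as a within-array Z-score. This score was averaged across arrays of the same protein sequence at different concentrations or buffers and across linkers, and negative values can be read as non-binding.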

[2] = target: GlcNAc(b1-6)GalNAc
How it was run: as §1

[3] = target: GlcNAc3Prop(b1-4)GlcNAc
How it was run: as §1

[4] = target: Kdn(a2-3)Gal(b1-3)GlcNAc
How it was run: as §1

[5] = target: Kdn(a2-3)Gal(b1-4)GlcNAc
How it was run: as §1

[6] = target: Man(a1-2)Man(a1-2)Man(a1-3)Man
How it was run: as §1

[7] = target: Man(a1-2)Man(a1-2)Man(a1-6)[Man(a1-3)]Man
How it was run: as §1

[8] = target: Man(a1-2)Man(a1-3)Man
How it was run: as §1

[9] = target: Man(a1-2)Man(a1-3)[Man(a1-2)Man(a1-6)]Man
How it was run: as §1

[10] = target: Man(a1-2)Man(a1-3)[Man(a1-2)Man(a1-6)]Man(a1-6)[Man(a1-2)Man(a1-2)Man(a1-3)]Man
How it was run: as §1

[11] = target: Man(a1-2)Man(a1-3)[Man(a1-2)Man(a1-6)]Man(a1-6)[Man(a1-2)Man(a1-2)Man(a1-3)]Man(b1-4)GlcNAc(b1-4)GlcNAc
How it was run: as §1

[12] = target: Man(a1-2)Man(a1-3)[Man(a1-6)]Man(a1-6)[Man(a1-2)Man(a1-3)]Man(b1-4)GlcNAc(b1-4)GlcNAc
How it was run: as §1

[13] = target: Man(a1-2)Man(a1-6)[Man(a1-3)]Man(a1-6)[Man(a1-2)Man(a1-2)Man(a1-3)]Man
How it was run: as §1

[14] = target: Man(a1-2)Man(a1-6)[Man(a1-3)]Man(a1-6)[Man(a1-2)Man(a1-2)Man(a1-3)]Man(b1-4)GlcNAc(b1-4)GlcNAc
How it was run: as §1

[15] = target: Man(a1-3)[Man(a1-6)]Man
How it was run: as §1

[16] = target: Man(a1-3)[Man(a1-6)]Man(a1-6)[Man(a1-2)Man(a1-3)]Man(b1-4)GlcNAc(b1-4)GlcNAc
How it was run: as §1

[17] = target: Man(a1-3)[Man(a1-6)]Man(a1-6)[Man(a1-3)]Man
How it was run: as §1

[18] = target: Man(a1-3)[Man(a1-6)]Man(a1-6)[Man(a1-3)]Man(b1-4)GlcNAc(b1-4)GlcNAc
How it was run: as §1

[19] = target: Man(a1-3)[Man(a1-6)]Man(b1-4)GlcNAc(b1-4)GlcNAc
How it was run: as §1

[20] = target: Man(a1-6)Man
How it was run: as §1

[21] = target: Man(b1-4)GlcNAc
How it was run: as §1

[22] = target: Neu5Ac(a2-3)Gal
How it was run: as §1

[23] = target: Neu5Ac(a2-3)Gal(b1-3)GalNAc
How it was run: as §1

[24] = target: Neu5Ac(a2-3)Gal(b1-3)GalNAc(b1-3)Gal(a1-4)Gal(b1-4)Glc
How it was run: as §1

[25] = target: Neu5Ac(a2-3)Gal(b1-3)GalNAc(b1-3)Gal(b1-4)GlcNAc
How it was run: as §1

[26] = target: Neu5Ac(a2-3)Gal(b1-3)GalNAc(b1-4)[Neu5Ac(a2-3)]Gal(b1-4)Glc
How it was run: as §1

[27] = target: Neu5Ac(a2-3)Gal(b1-3)GalNAc6S
How it was run: as §1

[28] = target: Neu5Ac(a2-3)Gal(b1-3)GlcNAc
How it was run: as §1

[29] = target: Neu5Ac(a2-3)Gal(b1-3)GlcNAc(b1-3)Gal(b1-3)GlcNAc
How it was run: as §1

[30] = target: Neu5Ac(a2-3)Gal(b1-3)GlcNAc6S
How it was run: as §1

B1: Surfactant Protein D (Human); Neck + Carbohydrate Recognition Domain (NCRD) (Homo sapiens) (protein)
chain: MLLFLLSALVLLTQPLGYLEAEMKTYSHRTMPSACTLVMCSSVESGLPGRDRDGREGPRGEKGDPGLPGAAGQAGMPGQAGPVGPKGDNGSVGEPGPKGDTGPSGPPGPPGVPGPAGREGALGKQGNIGPQGKPGPKGEAGPKGEVGAPGMQGSAGARGLAGPKGERGVPGERGVPGNTGAAGSAGAMGPQGSPGARGPPGLKGDKGIPGDKGAKGESGLPDVASLRQQVEALQGQVQHLQAAFSQYKKVELFPNGQSVGEKIFKTAQFVKPFTEAQLLCTQAGGQLASPRSAAENAALQQLVVAKNEAAFLSMTDSKTEGKFTYPTGESLVYSNWAPGEPNDDGGSEDCVEIFTNGKWNDRACGEKALVVCEF
glycan array binding signal (z-score) [1]: -0.564
glycan array binding signal (z-score) [2]: -0.812
glycan array binding signal (z-score) [3]: -0.229
glycan array binding signal (z-score) [4]: -0.048
glycan array binding signal (z-score) [5]: -0.324
glycan array binding signal (z-score) [6]: -0.072
glycan array binding signal (z-score) [7]: -0.532
glycan array binding signal (z-score) [8]: 0.578
glycan array binding signal (z-score) [9]: 0.486
glycan array binding signal (z-score) [10]: 4.48
glycan array binding signal (z-score) [11]: 0.02
glycan array binding signal (z-score) [12]: 1.78
glycan array binding signal (z-score) [13]: 0.757
glycan array binding signal (z-score) [14]: 0.81
glycan array binding signal (z-score) [15]: -0.638
glycan array binding signal (z-score) [16]: 7.39
glycan array binding signal (z-score) [17]: -0.3
glycan array binding signal (z-score) [18]: 0.186
glycan array binding signal (z-score) [19]: -0.486
glycan array binding signal (z-score) [20]: -0.447
glycan array binding signal (z-score) [21]: -0.16
glycan array binding signal (z-score) [22]: -0.24
glycan array binding signal (z-score) [23]: -0.229
glycan array binding signal (z-score) [24]: -0.379
glycan array binding signal (z-score) [25]: -0.014
glycan array binding signal (z-score) [26]: 0.154
glycan array binding signal (z-score) [27]: 1.43
glycan array binding signal (z-score) [28]: -0.356
glycan array binding signal (z-score) [29]: -0.194
glycan array binding signal (z-score) [30]: -0.691
